The RNAGym collection of RNA variant scans (doi:10.1093/nar/gkz1192)
The source gives no read counts; variants with many changes may rest on few reads.

B1: CPEB3 Ribozyme (parent)
chain: UAACAGGGGGCCACAGCAGAAGCGUUCACGUCGCAGCCCCUGUCAGAUUCUGGUGAAUCUGCGAAUUCUGCUGUAUAUCUC

Variants of: B1
Assay: self-cleavage, relative activity (ratio to wild type); higher = more cleavage; in vitro, sequencing
How it was run: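 Libraries of CPEB3 self-cleaving ribozyme mutants came from rounds of error-prone PCR and carried barcodes, which DNA sequencing matched to variants. In vitro transcription used T7 RNA polymerase at 37°C for 5 hours, with a further 15 min in DNase I before EDTA stopped the reaction; the ribozymes cleaved during both steps. The RNA was reverse transcribed with template switching and sequenced on Illumina. Relative activity is the cleaved/total read fraction of a variant divided by that of the unmutated ribozyme, averaged over three batches with at least 5 reads.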

Variant	self-cleavage
UAACAGGGGACCACAGCAGAAGCGCUCACGCCGCAGCACCUGCCAGAUUCUGGUGAAUCUGCGAAUUCUGCCGUAUAUCCC	0.06
UAACAGGGGACCACAGCAGAAGCGCUCACGUCGCAGCCCCUGUCAGAUUCUGGAGAUCCUACGGAUUCUGCUGUAUAUCUC	0.03
UAACAGGGGACCACAGCAGAAGCGUACACGUCGCGGCCCCUGUCAGAUUCUGGUGAAUCUGCGAAUUCUGCUGUAUAUCUC	0.59
UAACAGGGGACCACAGCAGAAGCGUACACGUCGCGGCCCCUGUGAGAUUCUGGUGGGGCUGCGAAUUCUGCUGUAUAUCUC	0.09
UAACAGGGGACCACAGCAGAAGCGUACACGUCGCAGCCCCUGUCAGAUUCUGGUGGAUCUGCGAAUACUGCCGUAUAUCUC	0.04
UAACAGGGGACCACAGCAGAAGCGUACACGUCUCAGCCCCUGUCAGAUUCUGGUGAAUCUGCGAAUUCUGCUGUAUAUCUC	0.16
UAACAGGGGACCACAGCAGAAGCGUACACGUCGCAGCCCCUGACAGAUUCUGGCGAAUCUGCGAAUUCUGAUGUAUAUCUC	0.03
UAACAGGGGACCACAGCAGAAGCGUACACGUCGCAGCCCCUGUCAGACUCUGGUGAAUCUGCGAAUUCAGCUGUAUAUCUC	0.04
UAACAGGGGACCACAGCAGAAGCGUACACGUCGCAGCCCCUGUCAGAUUCUGGUGAAUCUGCGAAUUCUGCCGUAUAUCUC	0.15
UAACAGGGGACCACAGCAGAAGCGUCCACGUCGCAGCCUCUGUCAGAUUCUGGCGAAUCUGCGGAUUCUGCUGUAUAUCUC	0.21
UAACAGGGGACCACAGCAGAAGCGUCCACGUCGCAACCCCUGUCAGAUUCUGGUGAAUCCGCGAAUUCUGCUGCAUAUCUC	0.06
UAACAGGGGACCACAGCAGAAGCGUCCACGUCGCAGCCCCAGUCAGAUUCUGGUGAAUCCGCGAAUUCUGCUGUAUACCUC	0.23
UAACAGGGGACCACAGCAGAAGCGUCCACGUCGCAGCCCCUGUCAGAUUCUGGUGAAUCUGCGAACUCUGCUGUAUAUCUC	0.07
UAACAGGGGACCACAGCAGAAGCGUCCACGUCGCAGCCCCUGUCAGAUUCUGGUGAAUCUGCGAAUUCUGCUGUAAAUAUC	0.33
UAACAGGGGACCACAGCAGAAGCGUGCACGUCGCGGCCCCUGCCAGGUACAGGUGAAUCUGCGAAUUCUGCUGUAUAUCUC	0.07
UAACAGGGGACCACAGCAGAAGCGUUCACGACGCAGCCCCUGUCGGAUUCUGGUGAAUCUGCGAAUUCUGCUGUAUAUCUC	0.07
UAACAGGGGACCACAGCAGAAGCGUUCACGACGCAGCCCCUGUCAGAUUCUGGUGAAUCUGCGAAUUCCGCUGUAUAUCUC	0.32
UAACAGGGGACCACAGCAGAAGCGUUCACGCCGCAGCCCCUGUCGGAUUCUGGUGAGUCUGCGAAUUCUGCUGUAUAUCUC	0.13
UAACAGGGGACCACAGCAGAAGCGUUCACGCCGCAGCCCCUGUCAGAUUCUGGUGAGUCUGCGAAUUCUGCUGUAUAUCUC	0.16
UAACAGGGGACCACAGCAGAAGCGUUCACGCCGCAGCCCCUGUCAGAUUCUGGUGAAUCUGCGGACUCUGCUGUAUAUCUC	0.04
UAACAGGGGACCACAGCAGAAGCGUUCACGCCGCAGCCCCUGGCAGAUUCUGGUGAAUCUGCGGAUUCUGCUGUAUAUCUC	0.04
UAACAGGGGACCACAGCAGAAGCGUUCACGCCGCAGCCCCUGUCAGACUCUGGUGAGUCUGCGAAUUCUGCUGUAUAUCUC	0.06
UAACAGGGGACCACAGCAGAAGCGUUCACGCCGCAGCCCCUGUCAGAUUCGGGUGAAUCUGCAAAUUCUUCCGUAUAUCUC	0.1

Variant	self-cleavage
UAACAGGGGACCACAGCAGAAGCGUUCACGCCGCAGCCCCUGUCAGAUUCUGGUGAAUCCGCGAAUUCUGCUGUAUAGCAC	0.03
UAACAGGGGACCACAGCAGAAGCGUUCACGCCGCAGCCCCUGUCAGAUUCUGGUGAAUCUGCGAACUCUGCUGUAUAUCUC	0.2
UAACAGGGGACCACAGCAGAAGCGUUCACGCCGCAGCCCCUGUCAGAUUCUGGUGAAUCUGCGAAUUCUGCCGUAUAUCUC	0.13
UAACAGGGGACCACAGCAGAAGCGUUCACGUCGCAGCCCCAGUCAGAUUCUGGUGAAUCUGCGAAUUCUGCCGUAUAUCUC	0.08
UAACAGGGGACCACAGCAGAAGCGUUCACGUCGCAGCCCCAGUCAGAUUCUGGUGAAUCUGCGAAUUCUGCUGUAUACCUC	0.07
UAACAGGGGACCACAGCAGAAGCGUUCACGUCGCAGCCCCCGUCAGGUUCUGGCGAAUCUGCGAAUUCUGCUGUAUAUCUC	0.33
UAACAGGGGACCACAGCAGAAGCGUUCACGUCGCAGCCCCCGUCAGAUUCUGGUGAAUCUCCGAAUUCUGCUGUAUAUCUC	0.09
UAACAGGGGACCACAGCAGAAGCGUUCACGUCGCAGCCCCCGACAGAUUCUGGUGAAUCUGCGAAUUCUGCCGUAUAUCUC	0.55
UAACAGGGGACCACAGCAGAAGCGUUCACGUCGCAGCCCCCGUCAGAUACUGGUGGAUCUGCGAAUUCUGGUGUAUAUCUC	0.16
UAACAGGGGACCACAGCAGAAGCGUUCACGUCGCAGCCCCCGUCAGAUUCUGGCGAACCUGCGAUCUCUGCUGCAUAUCUC	0.05
UAACAGGGGACCACAGCAGAAGCGUUCACGUCGCAGCCCCCGUCAGAUUCUGGUGAAUCUGCGAAAUCUGCUGUAUAUCUC	0.03
UAACAGGGGACCACAGCAGAAGCGUUCACGUCGCAGCCCCUGCCAGAUUCUGGUGAGUCUGCGAAUUCUGCUGUAUAUCUC	0.36
UAACAGGGGACCACAGCAGAAGCGUUCACGUCGCAGCCCCUGCCAGAUUCUGGUGAAUCUGCGUAUUCUGCCGUAUAUCUC	0.06
UAACAGGGGACCACAGCAGAAGCGUUCACGUCGCAGCCCCUGCCAGAUUCUGGAGAGUCUGCGAAUUCUGUUGUAUACCUC	0.04
UAACAGGGGACCACAGCAGAAGCGUUCACGUCGCAGCCCCUGGCAGUUUCUGGUGAAUCUGCGAAUUCUGCUGCAUAUCUC	0.19
UAACAGGGGACCACAGCAGAAGCGUUCACGUCGCAGCCCCUGUCAGAUCCUGGUGAAUCUGCGAAUUCCGCUGUAUAUCUC	0.34
UAACAGGGGACCACAGCAGAAGCGUUCACGUCGCAGCCCCUGUCAGAUGCUGGUGAAUCUGCGAAAUCUGCGGUAUAUCUC	0.05
UAACAGGGGACCACAGCAGAAGCGUUCACGUCGCAGCCCCUGUCAGAUUCCGGUGAAUCUACGAAUUCUGCUGUAUAUCUC	0.13
UAACAGGGGACCACAGCAGAAGCGUUCACGUCGCAGCCCCUGUCAGAUUCUGGAGAAUCUGCGAUUGCUGCUGUAUAUCUC	0.04
UAACAGGGGACCACAGCAGAAGCGUUCACGUCGCAGCCCCUGUCAGAUUCUGGUGAACCUGGGAACUCUGCCGUAUACCUC	0.06
UAACAGGGGACCACAGCAGAAGCGUUCACGUCGCAGCCCCUGUCAGAUUCUGGUGAAUCCGCGGAUUCUGCUGUAUAUCUC	0.05
UAACAGGGGACCACAGCAGAAGCGUUCACGUCGCAGCCCCUGUCAGAUUCUGGUGAAUCCGCGAAUCCUGCUGUAUAUCAC	0.07
UAACAGGGGACCACAGCAGAAGCGUUCACGUCGCAGCCCCUGUCAGAUUCUGGUGAAUCUGCGAACUCUGCUGUAUAUCCC	0.08

Variant	self-cleavage
UAACAGGGGACCACAGCAGAAGCGUUCACGUCGCAGCCCCUGUCAGAUUCUGGUGAAUCUGCGAAGUCUGCUGUGUAUCUC	0.29
UAACAGGGGACCACAGCAGAAGCGUUCACGUCGCAGCCCCUGUCAGAUUCUGGUGAAUCUGCGAAUCCAGCUGUAUAUCUC	0.1
UAACAGGGGACCACAGCAGAAGCGUUCACGUCGCAGCCCCUGUCAGAUUCUGGUGAAUCUGCGAAUCCUGCUGUAUAUCCC	0.03
UAACAGGGGACCACAGCAGAAGCGUUCACGUCGCAGCCCCUGUCAGAUUCUGGUGAAUCUGCGAAUUCUGCGGUAUAUCCC	0.09
UAACAGGGGCCCCCAGCAGAGGCGUUCACGUCGCAGCCCCUGUCAGAUUCUGGUGAAUCUGCGAAUUCUGCUGUAUAUCUC	0.29
UAACAGGGGCCCGCAGCAGAAGGGUUCACGUCGCAGCCCCAGUCAGAUUCUGGUGAAUCUGCGAAUUCUGCUGUGUAUCUC	0.05
UAACAGGGGCCCGCAGCAGAAGCGUUCACGUCGCAGCCCCCGUCAGAUUCUGGUGAGUCUGCGAAUUCCGCUGUAUAUCUC	0.17
UAACAGGGGCCCGCAGCAGAAGCGUUCACGUCGCAGCCCCUGUCAGAUUCUGGUGAAUCUGCGAACUCUGCUGUAUAUCUC	0.16
UAACAGGGGCCCUCGGCAGAAGCGUUCACGUCGCAGCCCCAGCCAGAUUCUGGUGGAUCUGCGAGUUCUGCUGUAUAUCUC	0.31
UAACAGGGGCCCACCGCAGGAGCGUCCACGUCGCAGCCCCUGUCAGAUUCUGGUGAAUCUGCAAAUUCUGCUGUAGAUCUC	0.61
UAACAGGGGCCCACGGCAGAAGCGUUCACGUCGCAGCCCCUGUCAGAUUCUGGUGAAUCUGCGAGUUCUGCUGUAUAUCUC	0.24
UAACAGGGGCCCACGGCAGAAGCGUCCACAUCGCAGCCCCUGUCAGAUUCUGGUGAGUCUGCGAAUUCUGCUGUAUAUCUC	0.07
UAACAGGGGCCCACGGCAGAAGCGUCCACGUCGCAGCCCCUGUCAGAUUCUGGUGAAUCUGCGAAUCCAGCUGUAUGUCUC	0.1
UAACAGGGGCCCACGGCAGAAGCGUUCACGUCGCAGCCCCUGUCAGAAUCUGGUGAAUCCGCGGAUUCUGCUGUAUAUCUC	0.05
UAACAGGGGCCCACGGCAGAAGCGUUCACGUCGCAGCCCCUGUCAGAUUCUGGUGAAUCUGCGAAUUCUGCUGUACAUCUC	0.29
UAACAGGGGCCCACUGCAGAAGCGUUCACGUCGCGGCCCCUGACAGAUUCUGGUGAAUCUGCGAACUCUGCUGUAUAUCUC	0.05
UAACAGGGGCCCACUGCAGAAGCGUUUACGUCGCAGCCCCUGACAGAUUCAGGUGAAUCUGCGAAUUCUGCUGUAUAUCUC	0.13
UAACAGGGGCCCACUGCAGAAGCGUGCACGUCGCAGCCCCUGUCAGAUCCUGGUGUAUCCGCGAAUUCUGCUGUAUACCUC	0.04
UAACAGGGGCCCACAGCGGAGGCGUUCACGUCGCAGCCCCUGUCAGAUUCUGGUGAAUCUGCGGACUCUGCUGUAUAUCUC	0.1
UAACAGGGGCCCACAGCGGAAGCGUUCACGUCGCAGCCCCUGUCAGAUUCUGGUGGAUCUGCGAAUUCUGCAGUAUAUCUC	0.1
UAACAGGGGCCCACAGCGGAAGAGUUCACGACGCAGCCCCUGUCAGAUUCUGGUGAAUCUGCGAAUUCUGCUGCAUACCUC	0.2
UAACAGGGGCCCACAGCGGAAGCGUUCACGUCGCAGCCCCUGUCAGAUUUGGGUGGAUCUGCGGAUUCUGCUGUAUAUCCC	0
